According to the antibiotic and cytotoxicity screens of Wong et al. (2023):
The list shows a part of the results.

The molecules below were run on HSkMC (human skeletal muscle cells) (assay: cytotoxicity call (relative viability < 0.9)). Conditions: 10 µM.
For `C[C@@H]1CCCCO[C@@H](CN(C)Cc2ccc(C(F)(F)F)cc2)[C@H](C)CN([C@H](C)CO)C(=O)c2cc(NC(=O)Nc3ccc4c(c3)OCO4)ccc2O1`, the cytotoxicity call was “active”. In the case of `COc1ccc(NC(=O)N(C)C[C@H]2OCCCC[C@H](C)Oc3ccc(NS(=O)(=O)c4ccc(C)cc4)cc3C(=O)N([C@H](C)CO)C[C@@H]2C)cc1`, the cytotoxicity call is reported as “inactive”. With `NC(=O)c1c(Cl)ncc2c1NCC2` the cytotoxicity call was “inactive”. `Cc1sc2ncnc(N3CCC[C@@H](Cn4cc(C(C)(C)N)nn4)C3)c2c1C` was tested, and the cytotoxicity call was “inactive”. With `Cc1ccc(S(=O)(=O)Nc2cccc3c2O[C@H](CN(C)S(=O)(=O)c2ccccc2)[C@@H](C)CN([C@H](C)CO)C3=O)cc1` the cytotoxicity call was “inactive”. In the case of `COc1cccc(NC(=O)N[C@@H]2CC[C@@H](CC(=O)N3CCOCC3)O[C@@H]2CO)c1`, the cytotoxicity call is reported as “inactive”. In the case of `NCCc1ccn[nH]1`, the cytotoxicity call is reported as “inactive”. For `C[C@H](CO)N1C[C@H](C)[C@H](CN(C)S(=O)(=O)c2ccccc2F)Oc2cc(-c3ccncc3)ccc2S1(=O)=O`, the cytotoxicity call was “inactive”. For `C[C@H]1CN([C@@H](C)CO)C(=O)c2cc(NC(=O)CCCN(C)C)ccc2O[C@H]1CN(C)S(=O)(=O)c1cccs1`, the cytotoxicity call was “inactive”. With `COc1ccc(S(=O)(=O)Nc2ccc3c(c2)C(=O)N([C@H](C)CO)C[C@H](C)[C@H](CN(C)Cc2ccccc2)OCCCC[C@H](C)O3)cc1` the cytotoxicity call was “inactive”. With `OC1(c2ccc(Cl)c(C(F)(F)F)c2)CCN(CCCC(c2ccc(F)cc2)c2ccc(F)cc2)CC1` the cytotoxicity call was “active”. For `C[C@H](CO)N1C[C@H](C)[C@H](CN(C)S(C)(=O)=O)OCCCC[C@H](C)Oc2ccc(NS(=O)(=O)c3ccccc3)cc2C1=O`, the cytotoxicity call was “inactive”.
